Experimental data as given in US5032597A, “Method of using phenylquinolinecarboxylic acids and derivatives for lymthoid leukemia treatment in a mammal” (priority 1987, dated 1991).
Values joined by “and” are separate entries in the source; they are usually repeats but may differ in a detail not shown here. Identical values can stand only once. The name of at least one read-out is uncertain.

Tested on: L1210 leukemia
Assay: Lymphoid Leukemia L1210, survival of tumored mice
Type: in vivo, CD2F1 mice
Experimental: The efficacy of the compounds of this invention against the transplanted mouse tumors was evaluated in test systems currently in use at the National Cancer Institute for the detection and assessment of anticancer activity. […] J. Cancer, 17, 129-142, (1981); Venditti, J. M., Seminars in Oncology, 8 (4) (1981); Goldin, A. and J. M. Venditti, in Recent Results in Cancer Research, 70, S. K. Carter and Y. Sakurai, Eds., Springer-Verlag, Berlin/Heidelberg, 1980].
The animals used in this test were CD2 F1 mice, all males weighing a minimum of 18 g and all within a 4 g weight range at the start of the test. The test group consisted of six mice. The tumor was implanted in each of the test mice by the intraperitoneal injection of 0.1 ml of diluted ascitic fluid containing 10^5 cells drawn from a mouse with L1210 leukemia. The test compounds were suspended in hydroxypropylcellulose or saline with Tween® 80 surfactant or dissolved in saline and injected intraperitoneally, at various doses, once daily for nine consecutive days starting on day one relative to the day of tumor inoculation (day 0). The control mice received injections of saline or hydroxypropylcellulose vehicle only. The mice were weighed and survivors were recorded on a regular basis for 30 days. The median survival time and the ratio of the median survival time for the treated (T) and control (C) mice was calculated. […] Drug effectiveness was assessed on the basis of the survival time. Results were expressed as a percentage of the control survival time (Median Survival Time: T/C ×100%). The criterion for effectiveness was determined by: T/C×100≥125 percent.

## Cc1c(-c2ccc(Oc3ccccc3)cc2)nc2ccc(F)cc2c1C(=O)O [Example 101]
50 mg/kg i.p.
  L1210 Leukemia % T/C (median survival time): 161%

## Cc1c(-c2ccc(-c3ccc(Br)cc3)cc2)nc2ccc(Cl)cc2c1C(=O)O [Example 117]
25 mg/kg i.p.
  L1210 Leukemia % T/C (median survival time): 175%

## Cc1ccc2nc(-c3ccc(-c4ccccc4)cc3)c(C)c(C(=O)O)c2c1 [Example 104]
100 mg/kg i.p.
  L1210 Leukemia % T/C (median survival time): 137% and 164%

## Cc1c(-c2ccc(-c3ccc(Br)cc3)cc2)nc2ccc(Cl)cc2c1C(=O)O [Example 175]
12.5 mg/kg i.p.
  L1210 Leukemia % T/C (median survival time): 159%

## Cc1c(-c2ccc(-c3ccc(Br)cc3)cc2)nc2ccc(F)cc2c1C(=O)O [Example 174]
12.5 mg/kg i.p.
  L1210 Leukemia % T/C (median survival time): 156% and 159%

## Cc1c(-c2ccc(Sc3ccccc3)cc2)nc2ccc(Cl)cc2c1C(=O)O [Example 111]
25 mg/kg i.p.
  L1210 Leukemia % T/C (median survival time): 135%

## Cc1c(-c2ccc(-c3ccc(O)cc3)cc2)nc2ccc(F)cc2c1C(=O)O [Example 191]
200 mg/kg i.p.
  L1210 Leukemia % T/C (median survival time): 156% and 132%

## Cc1c(-c2ccc(-c3ccccc3)cc2)nc2cccc(Cl)c2c1C(=O)O [Example 80]
25 mg/kg i.p.
  L1210 Leukemia % T/C (median survival time): 128% and 196%
